{"source": "PubChem BioAssay AID686979", "about": "(National Center for Advancing Translational Sciences (NCATS), 2013)", "note": "Where “and” joins values, the source holds several entries; their conditions need not be identical. Equal entries are not always repeated. The campaign covered roughly 420,000 compounds. About 50,000 (12%) were called active. Inconclusive means that the source gave no clear call. Such entries were picked first, then a sample of the others. Calls come from the whole dose curve; as a rule, active = well fitted inhibition curve with a large enough effect; inconclusive = small, poorly fitted or top-dose-only effect; inactive = flat fitted curve, though single readings scatter. Where the call is inconclusive, the potency comes from a doubtful curve fit. % is set by controls: 0 for no effect and ±100 for the full control effect; potency is the fitted concentration of half-maximal effect; tags give direction and shape of the fitted curve.", "data": [{"assay": "qHTS for Inhibitors of human tyrosyl-DNA phosphodiesterase 1 (TDP1): qHTS in cells in presence of CPT; note: nearly all actives have a fitted effect of over 55% in size", "details": "chicken DT40 Tdp1-/-;hTDP1 cells + 20 nM CPT, ATP luminescence, 48 h; activity change, negative = growth inhibition: at 46.2 µM (top of the series) unless noted", "outline": "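Chicken DT40 Tdp1-/- cells complemented with human TDP1, 400 cells/well, exposed to compounds plus 20 nM camptothecin for at least 48 h at 37 C; viability read as ATP content by CellTiter-Glo luminescence.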", "values": [{"smiles": "COC(=O)c1ccc(CC(C(=O)c2ccccc2)N(C)C)cc1", "note": "(stereo not given)", "Potency": "inconclusive: 29.1 µM [inhibitor, single point]"}, {"smiles": "Fc1c(F)c(F)c(N2CCNCC2)c(F)c1F", "activity change, negative = growth inhibition": "inactive: -15.4%"}, {"smiles": "Brc1ccc2[nH]cc(/C=N/N3CCCCC3)c2c1", "Potency": "inconclusive: 16.4 µM [inhibitor, single point]"}, {"smiles": "CN(C)/C=C1/C(=O)NC(=O)N(CCNc2ncc(C(F)(F)F)cc2Cl)C1=O", "activity change, negative = growth inhibition": "inactive: -5.65%"}, {"smiles": "O=C(NCC(c1cccnc1)N1CCN(c2ccc(F)cc2)CC1)Oc1ccccc1", "note": "(stereo not given)", "Potency": "inconclusive: 25.9 µM [inhibitor, partial curve, poor fit]"}, {"smiles": "CCc1ccc2c(CN3CC=C(c4ccccc4)CC3)cc(=O)oc2c1", "Potency": "inconclusive: 25.9 µM [inhibitor, single point]"}, {"smiles": "O=C(Nc1ccc(Cl)cc1)N1CC1", "Potency": "active: 8.2 µM"}, {"smiles": "Cc1ccc([N+](=O)[O-])cc1", "activity change, negative = growth inhibition": "inactive: -9.13%"}, {"smiles": "CC1C(=O)OC2O[C@]3(C)CC[C@H]4C(C)CCC1[C@]24OO3", "note": "(stereo not given in full)", "Potency": "active: 7.31 µM"}, {"smiles": "Cc1ccc(-c2nc3ccccc3c(=O)n2-n2cccc2)cc1", "Potency": "active: 16.4 µM"}, {"smiles": "CCN1CCN(c2nc3c(c(=O)[nH]2)CCCC3)CC1", "activity change, negative = growth inhibition": "inactive: -26%"}, {"smiles": "O=C(O)c1cccc2c1NC(c1cccc([N+](=O)[O-])c1)C1CC(Sc3ccccc3[N+](=O)[O-])C(Cl)C21", "note": "(stereo not given)", "Potency": "inconclusive: 10.3 µM [inhibitor, partial curve]"}, {"smiles": "O=c1[nH]c(=S)n(Cc2ccc(F)cc2)c(O)c1/C=N/N1CCCCCC1", "activity change, negative = growth inhibition": "inactive: -23.5%"}, {"smiles": "COc1ccc(CNc2oc(-c3cccc4ccccc34)nc2P(=O)(OC)OC)cc1", "Potency": "inconclusive: 14.6 µM [inhibitor, single point]"}, {"smiles": "CCCN[C@@H]1C(=O)N2C(C(=O)OCCC)=C(C)CS[C@H]12", "Potency": "inconclusive: 32.6 µM [inhibitor, partial curve, poor fit]"}, {"smiles": "CC(C)(O)/C=C/C(=O)C(C)(O)C1C(O)CC2(C)C3CC=C4C(C=C(O)C(=O)C4(C)C)C3(C)C(=O)CC12C", "note": "(stereo not given)", "Potency": "active: 0.0366 µM"}, {"smiles": "CCCCCCCCCc1ccc(O)cc1", "Potency": "inconclusive: 20.6 µM [inhibitor, single point]"}, {"smiles": "CN1Cc2cccnc2N(C)Cc2cc(Cl)ccc21", "Potency": "inconclusive: 29.1 µM [inhibitor, single point]"}, {"smiles": "CCCCCCC(=O)N/N=C/c1c(O)n(C(C)CC)c(=S)[nH]c1=O", "note": "(stereo not given)", "Potency": "active: 13 µM"}, {"smiles": "CC(N)Cc1cn(Cc2ccccc2)c2ccccc12", "note": "(stereo not given)", "Potency": "inconclusive: 16.4 µM [inhibitor, partial curve]"}, {"smiles": "COC(=O)C1=C(c2cc3ccccc3s2)C[C@@H]2CC[C@H]1N2C(=O)N1CCCCC1", "Potency": "active: 2.91 µM"}, {"smiles": "Cc1ccc(C)c(CN2C(=O)c3ccccc3S(=O)(=O)c3ccc(C(=O)N4CCCCCC4)cc32)c1", "Potency": "inconclusive: 29.1 µM [inhibitor, single point]"}, {"smiles": "O=C1OC(c2ccc(Cl)cc2)=N/C1=C\\N1CC2CC(C1)c1cccc(=O)n1C2", "note": "(stereo not given)", "Potency": "inconclusive: 18.4 µM [inhibitor, single point]"}, {"smiles": "CCOc1cc(CNCCc2ccccc2F)ccc1OC", "Potency": "inconclusive: 16.4 µM [inhibitor, single point]"}, {"smiles": "COC(=O)C1=C(c2cccc(OCc3ccccc3)c2)C[C@@H]2CC[C@H]1N2C(=O)NCc1ccc2[nH]ccc2c1", "Potency": "inconclusive: 23.1 µM [inhibitor, single point]"}, {"smiles": "O=C(CCCCCCCCCCC(=O)NCc1cccnc1)NCc1cccnc1", "Potency": "inconclusive: 10.3 µM [inhibitor, partial curve, poor fit]"}, {"smiles": "COC(=O)C1=C(c2ccc(F)cc2OCc2ccccc2)C[C@@H]2CC[C@H]1N2C(=O)NCc1ccc(OC)c(OC)c1", "Potency": "active: 18.4 µM"}, {"smiles": "CCCCn1c(=O)c(C(=O)Nc2cccc(C)c2)c(O)c2ccccc21", "Potency": "active: 5.8 µM"}, {"smiles": "COc1c(OP2(=S)OCC(C)(C)CO2)cnn(C2CCCCC2)c1=O", "Potency": "active: 23.1 µM"}, {"smiles": "CCCCn1c(NS(=O)(=O)c2ccc(C)cc2)c(C(=O)OCC)c2nc3ccccc3nc21", "Potency": "inconclusive: 6.51 µM [inhibitor, full curve, poor fit]"}, {"smiles": "O=C(CNC(=O)OCc1ccccc1)NCC(=O)Nc1ccc(Br)cc1C(=O)c1ccccc1", "activity change, negative = growth inhibition": "inactive: -3.41%"}, {"smiles": "COc1ccc(-c2cc(=Nc3ccccc3)c3cc(C)ccc3o2)cc1", "Potency": "inconclusive: 29.1 µM [inhibitor, single point]"}, {"smiles": "CCCCn1c(O)c(C=NC2CCCCC2N)c(=O)[nH]c1=O", "note": "(stereo not given)", "Potency": "inconclusive: 23.1 µM [inhibitor, single point]"}, {"smiles": "[O]=[Cr](=[O])([OH])[O][Cr](=[O])(=[O])[OH]", "Potency": "inconclusive: 29.9 µM [inhibitor, single point] and inconclusive: 21.1 µM [inhibitor, single point]"}, {"smiles": "c1ccc(CN2CCC3(CCNCC3)CC2)cc1", "Potency": "active: 4.61 µM"}, {"smiles": "Fc1ccccc1CCNCc1cccc2ccccc12", "Potency": "inconclusive: 20.6 µM [inhibitor, single point]"}, {"smiles": "O=C(CN1C(=O)CN=C(c2ccccc2)c2ccccc21)Nc1cccc(C(F)(F)F)c1", "Potency": "inconclusive: 23.1 µM [inhibitor, single point]"}, {"smiles": "CCCC1=Nc2cc(C(=O)NC3CCC(C)CC3)ccc2Sc2ccccc21", "note": "(stereo not given)", "Potency": "active: 6.51 µM"}, {"smiles": "NNC(=O)c1ccc(Cl)cc1", "Potency": "inconclusive: 7.31 µM [inhibitor, partial curve]"}, {"smiles": "CCC(C)n1c(O)c(/C=N/NC(=O)c2ccncc2)c(=O)[nH]c1=S", "note": "(stereo not given)", "activity change, negative = growth inhibition": "inactive: 2.5%"}, {"smiles": "O=S(=O)(c1cc(Cl)cc(Cl)c1)N1Cc2cc(N3CCOCC3)ccc2-n2nncc2C1", "Potency": "inconclusive: 20.6 µM [inhibitor, single point]"}, {"smiles": "CC(C)(C)NCC(O)c1cc(Cl)c(N)c(C(F)(F)F)c1", "note": "(stereo not given)", "activity change, negative = growth inhibition": "inactive: 14.4%"}, {"smiles": "Clc1cccc(CNCCc2ccc3c(c2)OCO3)c1", "Potency": "inconclusive: 18.4 µM [inhibitor, partial curve, poor fit]"}, {"smiles": "O=C(c1cccc(C(F)(F)F)c1)C1CCCN(Cc2ncc[nH]2)C1", "note": "(stereo not given)", "Potency": "inconclusive: 11.6 µM [inhibitor, partial curve]"}, {"smiles": "C=C1C(C)C2C(Cc3ccccc3)NC(=O)C23C(OC(C)=O)C=CC(C)(O)CC(C)CC=CC3C1O", "note": "(stereo not given)", "Potency": "active: 0.461 µM"}]}]}
